Test results from patent publication US20100204144A1, “USE OF THE PEPTIDES MAIPPKKNQDK (COW KAPPA CASEIN 106-116) AND/OR YGFQNA (SERORPHIN) AS THERAPEUTIC AGENTS” (priority 2007, published 2010).
Where no end group is shown, it is not given here.

Tested on: RAW 264.7 (Mouse leukaemic monocyte macrophage cell line) cells
Assay: Phagocytosis assay (Fluorescein-labeled Escherichia coli, flow cytometry)
Type: cell-based
Conditions: 10 micrograms per ml; RAW 264.7, 30 min pre-incubation, 60 min ingestion

Substance	increase on the phagocytic activity of murine macrophages [%]
Met-Ala-Ile-Pro-Pro-Lys-Lys-Asn-Gln-Asp-Lys-OH (MAIPPKKNQDK-OH) [peptide 1]	22.9
Tyr-Gly-Phe-Gln-Asn-Ala-OH (YGFQNA-OH) [peptide 2]	22.9
